A lower IC50 marks a more sensitive line; a limit (>, <) means that the fit lies beyond the doses tested. AUC sums up the same curve from the lowest dose to the 256-fold higher top dose: 1 means no effect, lower means more sensitive. For part of these data: The top dose, if marked as inferred, is not printed in the source and was worked back from the curve model.
Key:
Test in all cases: Viability of human cancer cell lines after 72 h of drug (GDSC screen)
BMX-IN-1 (QL-XII-61) = compound: C=CC(=O)Nc1cc(-n2c(=O)ccc3cnc4ccc(-c5ccc(NS(C)(=O)=O)cc5)cc4c32)ccc1C [BMX-IN-1 (QL-XII-61)]; conditions: top dose 10 µM; top dose inferred
Protocol: (§1)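 Human cancer cell lines in 384-well plates, medium with 10% serum, drug for 72 h over a 256-fold dose range (nine 2-fold or five 4-fold steps up to the top dose). Adherent lines were fixed and stained with the nucleic acid dye Syto60, suspension lines read with resazurin; signal relative to control wells, capped at 0 and 100%. One two-parameter sigmoid per drug and line, fitted in a mixed model over all curves with the slope shared within a line.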

17-AAG = compound: C=CCNC1=C2C[C@@H](C)C[C@H](OC)[C@H](O)[C@@H](C)/C=C(\C)[C@H](OC(N)=O)[C@@H](OC)/C=C\C=C(/C)C(=O)NC(=CC1=O)C2=O [17-AAG]; conditions: top dose 1 µM
Protocol: as §1

CCT018159 = compound: CCc1cc(-c2n[nH]c(C)c2-c2ccc3c(c2)OCCO3)c(O)cc1O [CCT018159]; conditions: top dose 10 µM; top dose inferred
Protocol: as §1

BIX02189 = compound: CN(C)Cc1cccc(N=C(c2ccccc2)c2c(O)[nH]c3cc(C(=O)N(C)C)ccc23)c1 [BIX02189]; conditions: top dose 20 µM; top dose inferred
Protocol: as §1

Dimethyloxalylglycine = compound: COC(=O)CNC(=O)C(=O)OC [Dimethyloxalylglycine]; conditions: top dose 4000 µM; top dose inferred
Protocol: as §1

Doxorubicin = compound: COc1cccc2c1C(=O)c1c(O)c3c(c(O)c1C2=O)C[C@@](O)(C(=O)CO)C[C@@H]3O[C@H]1C[C@H](N)[C@H](O)[C@H](C)O1 [Doxorubicin]; conditions: top dose 1.024 µM
Protocol: as §1

OSI-027 = compound: COc1cccc2cc(-c3nc([C@H]4CC[C@H](C(=O)O)CC4)n4ncnc(N)c34)[nH]c12 [OSI-027]; conditions: top dose 20 µM
Protocol: as §1

Vismodegib = compound: CS(=O)(=O)c1ccc(C(=O)Nc2ccc(Cl)c(-c3ccccn3)c2)c(Cl)c1 [Vismodegib]; conditions: top dose 10 µM; top dose inferred
Protocol: as §1

VX-11e = compound: Cc1cnc(Nc2ccc(F)cc2Cl)nc1-c1c[nH]c(C(=O)N[C@H](CO)c2cccc(Cl)c2)c1 [VX-11e]; conditions: top dose 5.12 µM; top dose inferred
Protocol: as §1

TG101348 = compound: Cc1cnc(Nc2ccc(OCCN3CCCC3)cc2)nc1Nc1cccc(S(=O)(=O)NC(C)(C)C)c1 [TG101348]; conditions: top dose 10.24 µM
Protocol: as §1

UNC1215 = compound: O=C(c1ccc(C(=O)N2CCC(N3CCCC3)CC2)c(Nc2ccccc2)c1)N1CCC(N2CCCC2)CC1 [UNC1215]; conditions: top dose 1 µM; top dose inferred
Protocol: as §1

Row | Cell Line | AUC (BMX-IN-1 (QL-XII-61)) | IC50 (BMX-IN-1 (QL-XII-61)) | AUC (17-AAG) | IC50 (17-AAG) | AUC (CCT018159) | IC50 (CCT018159) | AUC (BIX02189) | IC50 (BIX02189) | AUC (Dimethyloxalylglycine) | IC50 (Dimethyloxalylglycine) | AUC (Doxorubicin) | IC50 (Doxorubicin) | AUC (OSI-027) | IC50 (OSI-027) | AUC (Vismodegib) | IC50 (Vismodegib) | AUC (VX-11e) | IC50 (VX-11e) | AUC (TG101348) | IC50 (TG101348) | AUC (UNC1215) | IC50 (UNC1215)
1 | H2461 (mesothelioma, adherent) | 0.943 | > 10 µM | 0.816 | 0.741 µM | 0.881 | > 10 µM | 0.978 | > 20 µM | 0.678 | 898 µM | 0.736 | 0.363 µM | 0.893 | > 20 µM | 0.983 | > 10 µM | 0.981 | > 5.12 µM | 0.955 | > 10.2 µM | 0.972 | > 1 µM
2 | H2595 (mesothelioma, adherent) | 0.954 | > 10 µM | 0.775 | 0.563 µM | 0.906 | > 10 µM | 0.923 | > 20 µM | 0.578 | 445 µM | 0.546 | 0.0896 µM | 0.78 | 11.9 µM | 0.963 | > 10 µM | 0.978 | > 5.12 µM | 0.864 | > 10.2 µM | 0.969 | > 1 µM
3 | H2731 (mesothelioma, adherent) | 0.945 | > 10 µM | 0.765 | 0.417 µM | 0.927 | > 10 µM | 0.812 | 12.7 µM | 0.826 | 2900 µM | 0.911 | > 1.02 µM | 0.703 | 5.11 µM | 0.984 | > 10 µM | 0.887 | > 5.12 µM | 0.648 | 1.75 µM | 0.981 | > 1 µM
4 | H2869 (mesothelioma, adherent) | 0.974 | > 10 µM | 0.984 | > 1 µM | 0.984 | > 10 µM | 0.902 | > 20 µM | 0.479 | 216 µM | 0.711 | 0.295 µM | 0.292 | 0.278 µM | 0.984 | > 10 µM | 0.982 | > 5.12 µM | 0.584 | 1.15 µM | 0.981 | > 1 µM
5 | H3118 (head and neck, adherent) | 0.966 | > 10 µM | 0.616 | 0.134 µM | 0.871 | > 10 µM | 0.919 | > 20 µM | 0.562 | 376 µM | 0.36 | 0.0253 µM | 0.785 | 9.45 µM | 0.969 | > 10 µM | 0.675 | 1.04 µM | 0.863 | > 10.2 µM | 0.977 | > 1 µM
6 | HARA (lung squamous cell carcinoma, adherent) | 0.97 | > 10 µM | 0.601 | 0.124 µM | 0.872 | > 10 µM | 0.926 | > 20 µM | 0.641 | 656 µM | 0.63 | 0.155 µM | 0.328 | 0.38 µM | 0.983 | > 10 µM | 0.928 | > 5.12 µM | 0.837 | 8.53 µM | 0.981 | > 1 µM
7 | HCC1395 (breast, adherent) | 0.968 | > 10 µM | 0.904 | > 1 µM | 0.972 | > 10 µM | 0.928 | > 20 µM | 0.842 | 3680 µM | 0.924 | > 1.02 µM | 0.94 | > 20 µM | 0.983 | > 10 µM | 0.98 | > 5.12 µM | 0.913 | > 10.2 µM | 0.983 | > 1 µM
8 | HCC1419 (breast, adherent) | 0.967 | > 10 µM | 0.654 | 0.201 µM | 0.969 | > 10 µM | 0.965 | > 20 µM | 0.877 | > 4000 µM | 0.814 | 0.881 µM | 0.596 | 2.56 µM | 0.959 | > 10 µM | 0.979 | > 5.12 µM | 0.942 | > 10.2 µM | 0.98 | > 1 µM
9 | HCC1428 (breast, adherent) | 0.978 | > 10 µM | 0.85 | 0.869 µM | 0.932 | > 10 µM | 0.977 | > 20 µM | 0.958 | > 4000 µM | 0.859 | 0.982 µM | 0.757 | 7.5 µM | 0.988 | > 10 µM | 0.987 | > 5.12 µM | 0.924 | > 10.2 µM | 0.985 | > 1 µM
10 | HCC-15 (lung squamous cell carcinoma, adherent) | 0.97 | > 10 µM | 0.57 | 0.103 µM | 0.925 | > 10 µM | 0.968 | > 20 µM | 0.537 | 323 µM | 0.722 | 0.331 µM | 0.831 | 18 µM | 0.962 | > 10 µM | 0.949 | > 5.12 µM | 0.896 | > 10.2 µM | 0.933 | > 1 µM
11 | HCC-56 (large intestine, adherent) | 0.943 | > 10 µM | 0.787 | 0.445 µM | 0.985 | > 10 µM | 0.985 | > 20 µM | 0.944 | > 4000 µM | 0.675 | 0.2 µM | 0.849 | 15.7 µM | 0.959 | > 10 µM | 0.816 | 2.93 µM | 0.798 | 5.02 µM | 0.983 | > 1 µM
12 | HEC-1 (endometrium, adherent) | 0.986 | > 10 µM | 0.485 | 0.057 µM | 0.9 | > 10 µM | 0.989 | > 20 µM | 0.724 | 1050 µM | 0.664 | 0.18 µM | 0.944 | > 20 µM | 0.989 | > 10 µM | 0.989 | > 5.12 µM | 0.973 | > 10.2 µM | 0.988 | > 1 µM
